Source: PubChem BioAssay AID493208 (National Center for Advancing Translational Sciences (NCATS), 2011)
Out of some 44,000 compounds screened, about 340 (0.77%) were called active. Another 5% or so got no clear call; they are omitted. The call rests on the fitted dose curve; in most records, active means well fitted inhibition curve with a large enough effect; inconclusive means small, poorly fitted or top-dose-only effect; inactive means flat fitted curve, though single readings scatter. This is one part of the list.

assay: Acumen qHTS Assay for Inhibitors of the mTORC1 Signaling Pathway in MEF (Tsc2-/-, p53-/-) Cells: Sytravon; settings: phospho-rpS6 immunofluorescence/PI, 24 h; series mostly up to 38.3 µM; activity change, negative = inhibition: at the top concentration;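 further: plate controls were DMSO for no effect and rapamycin for full effect; nearly all actives have a fitted effect of over 50% in size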
Summary of the method: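 Cell-based qHTS: Tsc2-/- p53-/- MEF, 24 h cpd, 37 °C; fix/perm, anti-phospho-S6 Alexa-488 + PI; Acumen 488 nm scan; pS6/PI ratio, % positive cells; rapamycin 7.5 nM = inhibition ref; PI count = viability.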

Activity change, negative = inhibition, inactive:
Cc1ccc(C2=Nc3ccccc3N(CC(=O)NCc3ccccc3Cl)C(=O)C2)cc1C 2.59%
COc1ccc(N2Cc3cccc(C(=O)Nc4ccc(F)cc4)c3C2=O)cc1 -0.463%
O=C(Nc1c(C(=O)N2CCN(c3ccccc3)CC2)oc2ccccc12)c1ccco1 0.638%
Cc1c(C(=O)NCCc2ccc(Cl)cc2)sc2nc3n(c(=O)c12)CCCC3 -0.566%
Cc1ccccc1CN1c2ccccc2-c2nc(SCC(=O)NCc3ccccc3)ncc2S1(=O)=O -17.1%
Cc1ccc2nc(CNC(=O)c3ccccc3)[nH]c2c1 -0.584%
Cc1cccc(-c2noc(CSc3nc(-c4ccc(F)cc4)cc(=O)[nH]3)n2)c1 0%
COc1ccc(CCNC(=O)C(=O)NCC(c2ccc3c(c2)OCO3)N2CCOCC2)cc1OC (configuration not stated) -4%
CCOc1ccc(NC(=O)c2oc3ccccc3c2NC(=O)c2c(F)cccc2F)cc1 -23.3%
CCOc1ccc(NC(=O)C2CCCN(S(=O)(=O)c3ccc4[nH]c(=O)ccc4c3)C2)cc1 (configuration not stated) -2.64%
Cc1ccc(NC(=O)C(=O)c2cc(C)n(-c3ccc(F)cc3)c2C)cc1C -0.0615%
COc1ccccc1N1CCN(C(=O)CSc2nc3ccccc3nc2Cc2ccccc2)CC1 3.34%
COc1cccc(-n2ccn(CC(=O)c3ccc(F)cc3)c(=O)c2=O)c1 1.03%
Cc1ccc(CSC2=Nc3ccccc3C3=NC(CC(=O)NC4CCCCC4)C(=O)N23)cc1 (configuration not stated) 1.6%
CCCN(CCC)S(=O)(=O)c1ccc2c(c1)N(CC(=O)NC(C)c1ccccc1)C(=O)CS2 (configuration not stated) 6.05%
COc1ccc(CNC(=O)c2cc(Nc3ccc(C)cc3C)nc3ccccc23)cc1 3.45%
CCN(c1cccc(C)c1)S(=O)(=O)c1nnc(NC(=O)c2ccccc2Cl)s1 3.12%
Cc1ccc2nc(-c3ccc(NC(=O)COc4ccccc4)cc3)sc2c1 1.66%
COc1ccccc1N1CCN(C(=O)c2cc(-c3ccc(F)cc3)on2)CC1 -4.89%
CC(=O)c1ccc(N2C(=O)N(CC(=O)c3ccc(C)cc3)c3ccccc3S2(=O)=O)cc1 6.36%
Cc1ccc2c(c1)N(C(=O)N1CCC(C(=O)NC3CCCCCC3)CC1)CC(C)O2 (configuration not stated) 11.2%
COc1cc(NC(=O)Cc2c(C(=O)O)c(C)cn2C)cc(OC)c1 2.04%
CCOc1ccc(C2C(=O)N(C3CCCCC3)CC(=O)N2C2CCCC2)cc1OC (configuration not stated) 7.01%
COc1ccc(/C=C/C(=O)Nc2sc3c(c2C(N)=O)CCC(C)C3)cc1OC (configuration not stated) 9.43%
CCOC(=O)c1c(NC(=O)c2cc(C)on2)sc(C)c1C -10.4%
CNC(=O)c1ccc(Nc2nnc(-c3ccc(C)c(S(=O)(=O)N4CCCCC4)c3)c3ccccc23)cc1 -1.54%
Cc1ccc(-n2ncc3c(N4CCN(C)CC4)ncnc32)cc1Cl 8.94%
CCOc1ccc(NC(=O)CCS(=O)(=O)c2cccc3nonc23)cc1 -10.6%
CNC(=O)c1c[nH]c2ccc(S(=O)(=O)Nc3cccc(Cl)c3C)cc2c1=O -0.595%
CCc1cccc(NC(=O)CSc2ncccc2C(=O)Oc2ccccc2Cl)c1 5.88%
COc1ccc(CNC(=O)CCC(=O)N2CC3CCCN3c3ccccc32)c(OC)c1 (configuration not stated) 0.59%
Cc1cc(C)cc(OCc2ccc(C(=O)Nc3ccccc3F)o2)c1 0.285%
Cc1cc(C)c2c(=O)cc(C(=O)Nc3sc4c(c3C(=O)NCc3cccnc3)CCCC4)oc2c1 3.88%
CCC(Sc1nc2nccnc2c(=O)n1Cc1ccc(OC)cc1)C(=O)NC1CCCCC1 (configuration not stated) -3.15%
CC(C)C12CN3CC(C(C)C)(CN(C1)C3c1ccc(OCc3ccccc3)cc1)C2=O (configuration not stated) -2.1%
CCOc1ccccc1CNC(=O)c1ccc2c(c1)sc1nc(-c3cccc(OC)c3)cn12 7.2%
CC(C)n1c(SCC(=O)Nc2ccc(F)cc2)nc2c(oc3ccccc32)c1=O -3.5%
COC(=O)c1cc(S(=O)(=O)NCC2CCN(Cc3ccc(C)cc3)CC2)c[nH]1 0%
CC(=O)c1cccc(NC(=O)c2ccc(-n3c(C)nnc3C)cc2)c1 0.4%
CCOc1ccc(-n2c(SCC(=O)Nc3ccc(F)cc3)nc3c([nH]c4ccccc43)c2=O)cc1 1.37%
CC(C)(C)OC(=O)N1CCC(c2nnc(SCc3ccccc3)o2)CC1 -0.982%
Cc1cc(NC(=O)COc2ccccc2)cc(-c2nc3ccccc3o2)c1O -1.12%
O=C1OC(C(=O)Nc2ccc(Cl)c(C(F)(F)F)c2)Cc2ccccc21 (configuration not stated) 0.501%
COc1ccc(-c2noc(-c3ccc(N4CCCCC4C)c([N+](=O)[O-])c3)n2)cc1OC (configuration not stated) -2.42%
COc1ccccc1CNC(=O)c1ccc(N2Cc3cccc(OC)c3Oc3ncccc32)s1 -0.342%
CCCn1c(-c2cccc(Br)c2)nc2ccccc21 0.685%
CCCN1C(=O)C(Cc2nc3ccccc3c(=O)n2-c2cccc(C)c2)c2ccccc21 (configuration not stated) -3%
Cn1ncc(C(=O)N2CCN(c3ccc(F)cc3)CC2)c1C1CCN(C(=O)OC(C)(C)C)CC1 4.26%
Cc1ccc(C2=CC(c3c(F)cccc3Cl)n3ncnc3N2)cc1C (configuration not stated) -5.49%
CC(=O)Nc1cc(-c2nc3ccccc3s2)ccc1C 7.38%
Cc1cc(C)cc(NC(=O)C2CCCN2S(=O)(=O)c2cccc3nsnc23)c1 (configuration not stated) -0.384%
CCn1c(-c2ccc(S(=O)(=O)N3CCOCC3)cc2)csc1=Nc1ccc(C)c(Cl)c1 10.4%
O=C(CSc1nnc2[nH]c(=O)cc(-c3ccccc3)n12)Nc1ccc(F)cc1F 2.51%
CCOC(=O)c1ccc(CN(Cc2ccccc2C)S(=O)(=O)c2ccc(C(C)(C)C)cc2)cc1 8.85%
COc1cccc(C2C(C(=O)Nc3ccccc3)=C(C)Nc3nc(-c4ccccc4)nn32)c1OC (configuration not stated) 4.05%
Cc1cccc(-c2noc(-c3ccc(N4CCN(C)CC4)c([N+](=O)[O-])c3)n2)c1 -0.21%
COc1ccc(CNc2nc3c(c(=O)n(C)c(=O)n3C)n2Cc2ccccc2Cl)cc1 -2.06%
COc1ccc(C)cc1NC(=O)c1ccc2c(c1)CCN2S(=O)(=O)c1ccc(Cl)cc1 -5.79%
Cc1ccc(Cn2c(C)c(CNCCCc3ccccc3)c(C(=O)O)c2C)cc1 -2.31%
CCCCNC(=O)CSc1nnc(C)c2c(C)n(-c3ccccc3)nc12 0%
CC1CCN(S(=O)(=O)c2ccc3c(c2)CCC(=O)N3CC(=O)Nc2cccc(C#N)c2)CC1 0%
Cc1ccc(-c2cc3c(n2-c2ccc(C)cc2)CC(C)(C)CC3=O)cc1 2.64%
Cc1ccc(-c2noc(CNC(=O)c3ccccc3)n2)cc1 6.8%
CCC1CN(C(=O)N2CCC(C(=O)NCc3ccccc3C)CC2)c2ccccc2O1 (configuration not stated) 11.9%
CC(C)NC(=O)C1CCN(c2nc3ccccc3nc2C(F)(F)F)CC1 -4.38%
O=C(NCc1ccccc1)c1ccc(CSc2nc3cccnc3n2Cc2ccccc2F)cc1 -3.46%
O=C(NCCOCCn1c(=O)oc2ccccc21)Nc1ccc(F)cc1 0.525%
COc1ccc(OCC(=O)Nc2cccc(-c3nc4ccccc4s3)c2C)cc1 -16.9%
Cc1nc(N2CCCC2)ncc1C(=O)Nc1ccc(F)cc1F 0%
COc1ccccc1OCC(=O)Nc1nc(-c2ccc(Br)cc2)ns1 -0.874%
Cc1ccc(NC(=O)C2CCN(S(=O)(=O)c3c(C)noc3/C=C/c3ccco3)CC2)cc1C 1.31%
Cc1cc2c(cc1S(=O)(=O)N(CCN(C)C)Cc1ccco1)OCC(=O)N2 6.12%
Cc1ccc(S(=O)(=O)c2cn(C)c3cc(N4CCCC(C)C4)c(F)cc3c2=O)c(C)c1 (configuration not stated) 4.15%
Cc1ccc(CN2CCc3nc(N4CCN(C)CC4)ncc3C2)s1 16.2%
Cc1ccc(-n2ncc3c(N4CCC(Cc5ccccc5)CC4)ncnc32)cc1 7.76%
CC(C)(C)CC(=O)NC1CC(=O)N(c2ccc3c(c2)OCCO3)C1 (configuration not stated) -1.11%
O=C(c1ccc2c(c1)N(Cc1ccccc1F)C(=O)c1ccccc1S2=O)N1CCOCC1 (configuration not stated) 3.35%
Cc1cccc(N(C)C(=O)CSc2nc3ncccc3o2)c1 -7.86%
Cc1ccc2c(c1)cc1c(=O)n(CC(=O)N3CCCCC3)nc(C)n12 -1.09%
O=C(NCC1CCCO1)c1c[nH]c2ccc(S(=O)(=O)Nc3cccc(C(F)(F)F)c3)cc2c1=O (configuration not stated) -9.33%
COc1ccc2c(c1)c1c(c(=O)n(-c3ccccc3)c(=O)n1CC(=O)Nc1ccc(C)c(C)c1)n2C 1.61%
CN(Cc1ccccc1)S(=O)(=O)c1nnc(NC(=O)c2ccccc2)s1 6.95%
N#Cc1ccc(CSc2nc3c(c(=O)[nH]2)CCCC3)cc1 1.02%
Cc1cccc(N(C)C(=O)CCNS(=O)(=O)c2ccc3c(c2)CCN3C(=O)C2CC2)c1 -1.12%
O=C(Nc1c(C(=O)Nc2ccccc2F)oc2ccccc12)c1cc2ccccc2o1 1.28%
COC(=O)CCn1cnc2onc(-c3cc(F)cc(F)c3)c2c1=O -3.39%
CC(C)Sc1ncc(Cl)c(C(=O)Nc2ccc(S(=O)(=O)N(C)c3ccccc3)cc2)n1 -9.85%
Fc1ccc2ncc3c(-c4ccccc4)n[nH]c3c2c1 16%
Cn1ncc2c(Nc3cccc(F)c3)ncnc21 0%
COc1cc(C(CC(=O)NCCC(C)C)N2Cc3ccccc3C2=O)cc(OC)c1OC (configuration not stated) -8.04%
COc1cc(NC(=O)CN2CCN(CC(=O)Nc3ccc(F)cc3)CC2)cc(OC)c1 0.961%
CN(C(=O)c1cc2c(s1)-c1ccc(Cl)cc1SC2)c1cccc(C(F)(F)F)c1 -0.39%
O=C(CN1C(=O)COc2ccc(S(=O)(=O)N3CCCCC3)cc21)NCc1ccc(Cl)cc1 -3.18%
COc1ccc(CCNC(=O)c2cnc3sc(N4CCCC4)nn3c2=O)cc1OC -1.68%
CSCCC(NS(=O)(=O)c1ccc2c(c1)oc(=O)n2C)C(=O)N1CCN(c2cccc(Cl)c2)CC1 (configuration not stated) -2.7%
Cc1ccc(CNC(=O)c2nnn(CC(=O)Nc3cc(C)ccc3C)c2N)cc1 -7.02%
Cc1ccc(CN(Cc2ccco2)C(=O)COc2ccc(Cl)cc2)o1 1.04%
